Assay results taken from EPA's CvTdb concentration-time database.
The source gives many values for each of these; only a part stands here.

Key:
Experiment in all cases: concentration in plasma after dosing
Rat [1] = settings: 0.5 h; dosed: Dibromoacetic acid; 25 mg/kg; iv; Female; F344
Rat [2] = settings: 5 min; dosed: Dibromoacetic acid; 50 mg/kg; oral; Male; F344
Rat [3] = settings: dosed: Dibromoacetic acid, 125 mg/kg, oral, Male, F344
Rat [4] = settings: dosed: Dibromoacetic acid, 25 mg/kg, iv, Female, F344
Rat [5] = settings: dosed: Dibromoacetic acid, 50 mg/kg, oral, Male, Harlan Sprague Dawley
Rat [6] = settings: 0.5 h; dosed: Dibromoacetic acid; 25 mg/kg; iv; Male; F344
Rat [7] = settings: 10 min; dosed: Dibromoacetic acid; 125 mg/kg; oral; Male; F344
Rat [8] = settings: dosed: Dibromoacetic acid, 25 mg/kg, iv, Male, F344
Rat [9] = settings: dosed: Dibromoacetic acid, 125 mg/kg, oral, Male, F344; remark: listed apart in the source
Rat [10] = settings: 10 min; dosed: Dibromoacetic acid; 125 mg/kg; oral; Female; F344
Rat [11] = settings: 3 h; dosed: Dibromoacetic acid; 50 mg/kg; oral; Female; F344
Rat [12] = settings: dosed: Dibromoacetic acid, 125 mg/kg, oral, Male, F344; remark: listed apart in the source
Rat [13] = settings: dosed: Dibromoacetic acid, 50 mg/kg, oral, Female, Harlan Sprague Dawley
Rat [14] = settings: dosed: Dibromoacetic acid, 50 mg/kg, oral, Male, Harlan Sprague Dawley; remark: listed apart in the source
Rat [15] = settings: dosed: Dibromoacetic acid, 25 mg/kg, iv, Female, F344; remark: listed apart in the source
Rat [16] = settings: 5 min; dosed: Dibromoacetic acid; 125 mg/kg; oral; Male; F344
Rat [17] = settings: 10 min; dosed: Dibromoacetic acid; 125 mg/kg; oral; Female; F344; remark: listed apart in the source
Rat [18] = settings: dosed: Dibromoacetic acid, 50 mg/kg, oral, Male, Harlan Sprague Dawley; remark: listed apart in the source
Rat [19] = settings: dosed: Dibromoacetic acid, 125 mg/kg, oral, Female, Harlan Sprague Dawley
Rat [20] = settings: 5 min; dosed: Dibromoacetic acid; 125 mg/kg; oral; Male; F344; remark: listed apart in the source
Rat [21] = settings: 3 h; dosed: Potassium Perfluorobutane Sulfonate; 20 mg/kg; oral; Male; Harlan Sprague Dawley
Rat [22] = settings: dosed: Potassium Perfluorobutane Sulfonate, 4 mg/kg, oral, Female, Harlan Sprague Dawley
Rat [23] = settings: dosed: Potassium Perfluorobutane Sulfonate, 100 mg/kg, oral, Female, Harlan Sprague Dawley
Rat [24] = settings: dosed: Potassium Perfluorobutane Sulfonate, 100 mg/kg, oral, Female, Harlan Sprague Dawley; remark: listed apart in the source
Rat [25] = settings: 0.5 h; dosed: Potassium Perfluorobutane Sulfonate; 20 mg/kg; oral; Female; Harlan Sprague Dawley
Rat [26] = settings: dosed: Potassium Perfluorobutane Sulfonate, 20 mg/kg, oral, Female, Harlan Sprague Dawley
Rat [27] = settings: dosed: Potassium Perfluorobutane Sulfonate, 100 mg/kg, oral, Male, Harlan Sprague Dawley
Rat [28] = settings: dosed: Potassium Perfluorobutane Sulfonate, 100 mg/kg, oral, Male, Harlan Sprague Dawley; remark: listed apart in the source
Rat [29] = settings: 0.75 h; dosed: Potassium Perfluorobutane Sulfonate; 20 mg/kg; oral; Male; Harlan Sprague Dawley
Rat [30] = settings: 12 h; dosed: Potassium Perfluorobutane Sulfonate; 20 mg/kg; oral; Female; Harlan Sprague Dawley
Rat [31] = settings: dosed: Potassium Perfluorobutane Sulfonate, 4 mg/kg, oral, Female, Harlan Sprague Dawley; remark: listed apart in the source
Rat [32] = settings: dosed: Potassium Perfluorobutane Sulfonate, 100 mg/kg, oral, Male, Harlan Sprague Dawley; remark: listed apart in the source
Rat [33] = settings: 0.75 h; dosed: Potassium Perfluorobutane Sulfonate; 20 mg/kg; oral; Female; Harlan Sprague Dawley
Rat [34] = settings: dosed: Potassium Perfluorobutane Sulfonate, 100 mg/kg, oral, Male, Harlan Sprague Dawley; remark: listed apart in the source
Rat [35] = settings: dosed: Potassium Perfluorobutane Sulfonate, 100 mg/kg, oral, Female, Harlan Sprague Dawley; remark: listed apart in the source
Rat [36] = settings: 12 h; dosed: Potassium Perfluorobutane Sulfonate; 20 mg/kg; oral; Male; Harlan Sprague Dawley

O=C(O)C(Br)Br [Dibromoacetic acid]
Settings	concentration in plasma [ng/mL]
Rat [1]	13500
Rat [2]	8280
Rat [6]	13900
Rat [7]	32500
Rat [10]	60800
Rat [11]	1820
Rat [16]	50200
Rat [17]	67000
Rat [20]	45700

Settings	concentration in plasma [ng/mL]
Rat [3], 8 h	136
Rat [3], 10 min	38900
Rat [4], 2 min	61300
Rat [4], 40 min	4900
Rat [5], 1 h	21500
Rat [5], 2 h	3390
Rat [8], 0.75 h	6340
Rat [8], 5 min	48600
Rat [9], 1 h	91400
Rat [9], 2 h	39000
Rat [12], 0.5 h	70000
Rat [12], 6 h	286
Rat [13], 1.5 h	8900
Rat [13], 20 min	12400
Rat [14], 1.5 h	14000
Rat [14], 20 min	24100
Rat [15], 7 min	41600
Rat [15], 50 min	4500
Rat [18], 0.75 h	24500
Rat [18], 4 h	1440
Rat [19], 3 h	12400
Rat [19], 20 min	70500

O=S(=O)([O-])C(F)(F)C(F)(F)C(F)(F)C(F)(F)F.[K+] [Potassium Perfluorobutane Sulfonate]
Settings	concentration in plasma [ng/mL]
Rat [21]	62500
Rat [25]	39500
Rat [29]	67000
Rat [30]	410
Rat [33]	48000
Rat [36]	12800

Settings	concentration in plasma [ng/mL]
Rat [22], 0.75 h	11100
Rat [22], 12 h	51.5
Rat [23], 0.25 h	97900
Rat [23], 6 h	54700
Rat [24], 3 h	95300
Rat [24], 5 min	27700
Rat [26], 5 min	4450
Rat [26], 9 h	356
Rat [27], 0.5 h	235000
Rat [27], 9 h	42000
Rat [28], 3 h	177000
Rat [28], 5 min	18700
Rat [31], 3 h	4050
Rat [31], 5 min	1070
Rat [32], 1.5 h	202000
Rat [32], 48 h	99.2
Rat [34], 3 h	151000
Rat [34], 5 min	6140
Rat [35], 0.5 h	171000
Rat [35], 9 h	6980
